According to paper PMC4336329 (PLoS ONE, 2015):
In all, about 310,000 compounds went through this assay and about 14,000 (4.5%) showed an effect of 50% or more. Effects have a minus sign here. The list shows a part of the results.

Each molecule was assayed against human ether-à-go-go-related gene (hERG) potassium channel (human, UniProt Q12809) (assay: primary screen, population patch clamp on CHO cells stably expressing hERG).
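Further: peak tail current of the secondary pulse compared with the same well before compound.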

human ether-à-go-go-related gene (hERG) potassium channel, sequence (Q12809 whole entry, looked up): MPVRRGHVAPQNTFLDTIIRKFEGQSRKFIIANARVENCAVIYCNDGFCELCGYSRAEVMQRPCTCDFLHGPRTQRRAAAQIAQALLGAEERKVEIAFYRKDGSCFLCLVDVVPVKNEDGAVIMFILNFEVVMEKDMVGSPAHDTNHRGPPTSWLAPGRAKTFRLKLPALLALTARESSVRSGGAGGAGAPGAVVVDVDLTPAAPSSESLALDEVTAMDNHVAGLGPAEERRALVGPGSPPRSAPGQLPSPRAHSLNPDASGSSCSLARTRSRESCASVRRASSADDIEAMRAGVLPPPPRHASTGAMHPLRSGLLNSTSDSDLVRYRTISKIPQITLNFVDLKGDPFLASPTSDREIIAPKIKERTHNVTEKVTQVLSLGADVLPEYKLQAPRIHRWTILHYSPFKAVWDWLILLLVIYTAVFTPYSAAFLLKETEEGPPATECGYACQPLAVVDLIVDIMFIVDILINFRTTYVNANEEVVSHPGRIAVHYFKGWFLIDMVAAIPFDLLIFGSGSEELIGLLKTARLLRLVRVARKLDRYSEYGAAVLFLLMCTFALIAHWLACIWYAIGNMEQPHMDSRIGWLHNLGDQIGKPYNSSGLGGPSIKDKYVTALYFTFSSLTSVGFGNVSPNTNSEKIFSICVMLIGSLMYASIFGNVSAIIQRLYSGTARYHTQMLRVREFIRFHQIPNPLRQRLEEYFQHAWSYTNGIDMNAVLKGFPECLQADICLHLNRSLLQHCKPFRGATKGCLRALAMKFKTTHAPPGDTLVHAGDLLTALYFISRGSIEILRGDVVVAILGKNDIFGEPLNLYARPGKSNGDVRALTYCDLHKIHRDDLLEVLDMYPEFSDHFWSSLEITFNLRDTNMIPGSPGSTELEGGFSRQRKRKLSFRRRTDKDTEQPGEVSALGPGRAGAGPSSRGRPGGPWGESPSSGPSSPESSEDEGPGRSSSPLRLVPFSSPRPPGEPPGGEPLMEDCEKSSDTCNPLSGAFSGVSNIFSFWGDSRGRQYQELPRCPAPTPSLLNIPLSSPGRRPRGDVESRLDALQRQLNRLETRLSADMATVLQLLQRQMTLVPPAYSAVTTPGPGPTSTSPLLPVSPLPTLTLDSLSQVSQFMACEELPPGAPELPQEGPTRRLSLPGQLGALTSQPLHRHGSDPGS

In order of rising “hERG current change (%, negative = inhibition) at 10uM” value:
1. CCN(Cc1ccc(OC)c(COC)c1)CC1CCCN(CCc2cccc(F)c2)C1 (centres unmarked)  -67.7%
2. O=C(NCC1(N2CCCCC2)CCCCC1)c1cccc(S(=O)(=O)Nc2ccc(F)cc2)c1  -64%
3. Cl.O[Si](CCCN1CCCCC1)(c1ccc(F)cc1)C1CCCCC1 (centres unmarked)  -54.3%
4. Cl.O=[N+]([O-])c1ccc(N2CCNCC2)cc1N1CCCCCC1  -42.2%
5. COC(=O)c1ccccc1NC(=O)C12CC3CC(C1)CC(n1cnc(Cl)n1)(C3)C2  -38.5%
6. CC(C)(C)c1ccc(OCC(=O)NCC(c2cccs2)N2CCOCC2)cc1 (centres unmarked)  -37%
7. CO/N=C/NC(=O)C1=NOC(CNc2ncc(C(F)(F)F)cc2Cl)C1 (centres unmarked)  -36.1%
8. CCN(c1ccccc1)S(=O)(=O)c1cc(NC(=O)Nc2ccccc2C#N)ccc1Cl  -34.2%
9. Cc1ccc(S(=O)(=O)N2CCC(C(=O)OCC(=O)N(CCC#N)c3ccc(F)cc3)CC2)cc1C  -33.6%
10. CCOC(=O)c1sc2nc(SCC(=O)N(CC)CC)n(CCCN3CCCC3=O)c(=O)c2c1C  -32.4%
11. COc1ccc(N(C(=O)c2ccc(S(=O)(=O)N3CCCC3)cc2)C2C=CS(=O)(=O)C2)cc1 (centres unmarked)  -31.9%
12. CCOc1ccc(-c2nc(N)ncc2-c2ccccc2OC)c(O)c1  -30.2%
13. CCOC(=O)CN(c1ccccc1C)S(=O)(=O)c1ccc(Cl)cc1  -20.8%
14. CCCNC(=O)CCn1nc(-c2ccc(Cl)cc2)c2ccccc2c1=O  -20.4%
15. Cc1ccccc1NS(=O)(=O)c1ccc(C(=O)NCC(c2ccco2)N(C)C)cc1 (centres unmarked)  -17%
16. c1coc(-c2nnc(SCc3nc4ccccc4[nH]3)o2)c1  -16.7%
17. Cc1ccc(NC(=O)CC2NCCN(Cc3ccccc3)C2=O)cc1 (centres unmarked)  -16.5%
18. CCOC(=O)CN1C=C(c2ccc3ccccc3n2)C(C[N+](=O)[O-])c2ccccc21 (centres unmarked)  -16%
19. O=C(c1ccc2c(c1)CCN2S(=O)(=O)c1ccccc1)N1CCN(c2ccc(F)cc2)CC1  -15.5%
20. CCC(=O)N1CCN(c2cc(N3CCN(C)CC3)c(F)cc2[N+](=O)[O-])CC1  -15.4%
21. CCCC(=O)Nc1cccc(NC(=O)c2ccc([N+](=O)[O-])cc2Cl)c1  -14.5%
22. CCOC(=O)N1CCN(C(=O)CSc2nnc(-c3ccccc3OC)o2)CC1  -12.9%
23. CCN(CC)c1ccc(/C=N/NC(=O)CCC(=O)NCc2ccccc2)c(O)c1  -12.9%
24. O=C(CSc1ccc(-c2ccc(F)cc2)nn1)Nc1ccc2c(c1)OCCO2  -11.3%
25. CCOC(=O)C1CCCN(c2c(NCCCN(C)Cc3ccccc3)c(=O)c2=O)C1 (centres unmarked)  -9.63%
26. COc1ccc(Br)cc1CNC(=O)c1ccc2c(c1)N(C)CCS2  -8.73%
27. Cc1ccc(N2C(=O)C3ON(c4ccccc4)C(c4ccncc4)C3C2=O)c(C)c1 (centres unmarked)  -7.87%
28. Nc1c(-c2ccc(Cl)cc2)cnn1-c1cccc(C(F)(F)F)c1  -7.57%
29. COc1ccc(C2C(C(=O)N3CCC4(CC3)OCCO4)CC(=O)N2c2ccc(OC)cc2)cc1 (centres unmarked)  -6.88%
30. C/C(=N\NC(=O)c1ccn(C)n1)c1ccc(NC(=O)C2CCC2)cc1  -6.39%
31. CC(=O)Nc1ccc(C(=O)c2ccccc2)cc1  -4.78%
32. CC(C)Cc1nc2oc3c(Cl)ncnc3c2c2c1CCCC2  -4.06%
33. CCC(CC)C(=O)Nc1cc([N+](=O)[O-])ccc1Cl  -4.02%
34. Cc1ccc(NC2CCCN(C(=O)c3c(C)noc3C)C2)cc1C (centres unmarked)  -1.58%
35. Cc1nc(NC(=O)CSc2nccn2C)sc1C(=O)N(C)C  -1.55%
36. COc1ccc(C(=O)NN(c2ccccc2)c2ccccc2)cc1  -1.19%
37. COc1ccc2c(CCNC(=O)CN3C(=O)c4ccccc4C3=O)c[nH]c2c1  0.19%
38. CCOC(=O)c1ccc(NC(=O)c2nc[nH]c2C(=O)NCCCCCNC(=O)OC(C)(C)C)cc1  0.213%
39. O=C(NCCc1ccc(Cl)cc1)C1CCN(c2ncccn2)CC1  0.669%
40. CN1CC=C2C(C#N)=C(N)C(C#N)(C#N)[C@H](c3cccs3)[C@H]2C1  0.684%
41. C/C(=N/NC(=O)c1ccc2c(c1)OCO2)c1cccc(NC(=O)C(C)(C)C)c1  1.11%
42. CCc1cc2c(=O)c(-c3ccc4c(c3)OCCO4)c(C)oc2cc1OS(C)(=O)=O  1.39%
43. O=C(COC(=O)CCC(=O)c1cccs1)NC1CCCCC1  1.55%
44. CC(C)N(C(C)C)S(=O)(=O)c1ccc(NC(=O)c2cnccn2)cc1  1.93%
45. CCc1ccc(C(=O)NNC(=O)CN2C(=O)NC3(CCCC3)C2=O)cc1  2%
46. NS(=O)(=O)c1ccc(CNC(=O)c2cccc(S(=O)(=O)N3CCc4ccccc43)c2)cc1  2.44%
47. COC(=O)COc1ccc(S(=O)(=O)N2CCOCC2)cc1  2.77%
48. O=C(COc1ccc2cc(Br)ccc2c1Br)N1CCOCC1  3.11%
49. CN(C(=O)CS(=O)(=O)c1cn(CC(=O)N2CCCCC2)c2ccccc12)c1ccccc1  3.46%
50. O=C(CC1C(=O)NCCN1Cc1ccc(F)c(F)c1)NCCn1cccn1 (centres unmarked)  4.04%
51. O=C(NC1CCCc2ccccc21)C1CCN(S(=O)(=O)c2cccc3nsnc23)CC1 (centres unmarked)  4.33%
52. Fc1cccc(-c2nn[nH]n2)c1  4.64%
53. Cc1cccc(C)c1OCC(O)CNC(C)C.Cl (centres unmarked)  5.06%
54. O=C1C=C(c2ccc3[nH]ccc3c2)C[C@@H](c2ccc(Cl)cc2)C1  5.06%
55. COc1cccc(NC(=O)c2ccccc2Oc2ccccc2)c1  5.63%
56. Cc1c(C=C2C(=O)N(C)C(=O)N(C)C2=O)c(=O)n(-c2ccccc2)n1C  5.86%
57. CC12C=CC(=O)C=C1CCC1C3CCC(O)(C(=O)CO)C3(C)CC3OC312 (centres unmarked)  6.22%
58. Cc1ccc(CC2C(=O)N(c3ccccc3)C(=O)C2C)cc1 (centres unmarked)  6.5%
59. O=C(NC1(C(F)(F)F)NC(=O)N(Cc2ccco2)C1=O)c1cccnc1 (centres unmarked)  7.28%
60. COc1cc(-c2nc3ccccn3c2/N=C/c2cc(OC)c(O)cc2Cl)ccc1O  7.75%
61. CN(c1ccccc1C(=O)Nc1ccc(S(=O)(=O)N2CCOCC2)cc1)S(C)(=O)=O  7.91%
62. COc1ccc(C(C)(C)C)cc1NC(=O)CCN1C(=O)C2CCCCC2C1=O (centres unmarked)  8.08%
63. CCOC(=O)C1CCN(C(=O)Cc2c(F)cccc2Cl)CC1  8.56%
64. O=C(Cc1cc(=O)[nH][nH]1)N/N=C/C=C/c1ccccc1  8.93%
65. Cc1c(-c2nc(N)nc(Nc3ccc(F)cc3)n2)oc2ccccc12  9.41%
66. C/C(=C(\C#N)C(=O)NCCCN1CCOCC1)N(C)C  9.66%
67. Cc1ccc(NC(=O)N2CCCC(c3ccccc3)C2)cc1 (centres unmarked)  9.76%
68. COC(=O)Cc1c(C)nc2nc(-c3cccnc3)[nH]n2c1=O  9.77%
69. CN(C)c1ccc(CNCC2CCCO2)cc1.Cl (centres unmarked)  10.5%
70. COc1cccc(NC(=O)CNC(=O)[C@@H]2Cc3ccccc3CN2C(=O)OC(C)(C)C)c1  11%
71. Cc1c(CC(=O)O)c(=O)oc2c(C)c3occ(-c4ccccc4)c3cc12  12.1%
72. COc1ccc(N=c2oc3ccccc3cc2C(=O)Nc2ccccn2)cc1OC  12.4%
73. CC(C)(O)C#Cc1ccc(C(=O)NC(CCCNC(N)=O)C(=O)O)s1 (centres unmarked)  12.4%
74. CN(C)S(=O)(=O)Oc1ccsc1C(=O)Nc1ccc(Cl)c(Cl)c1  12.5%
75. CCOC(=O)C1Sc2ccccc2NC1=O (centres unmarked)  14.8%
76. CC(C)Oc1ccc(C(=O)Nc2nc3ccccc3[nH]2)cc1  14.8%
77. Cc1ccc2c(c1)C1(OCCCO1)C(=O)N2  15.6%
78. c1ccc2sc(SCSc3nc4ccccc4s3)nc2c1  15.8%
79. O=C1c2ccccc2C(O)(Cc2ccccc2)N1CCCN1CCOCC1 (centres unmarked)  17.9%
80. Cc1nc2sccn2c(=O)c1S(=O)(=O)Nc1ccc(N2CCN(C(=O)C(C)C)CC2)cc1  18.3%
81. CNC(=O)c1ccc(NC(=O)CCc2c(C)noc2C)cc1  20.5%
82. O=C(NCc1ccccc1)C1CCCN(S(=O)(=O)c2ccc(Br)cc2)C1 (centres unmarked)  23.4%
83. COc1cc(OC)cc(-c2c(-c3ccsc3)c3cc(Br)ccc3n2C)c1  23.8%
84. O=C(NC1CCCCC1)C(c1ccc(F)cc1)N(CCN1CCOCC1)C(=O)c1ccc(-c2ccccc2)[nH]1 (centres unmarked)  24.4%
85. CC1CCCCN1CCCNc1ccc(C(CC(N)=O)NC(=O)Cc2ccc(Br)cc2)cc1[N+](=O)[O-] (centres unmarked)  26.6%
86. CC(=O)c1ccc(N2CCCCC2)c(F)c1  28%
